# Assay results taken from the supplement of paper PMC12645437, “Orthogonal IMiD-Degron Pairs Induce Selective Protein Degradation in Cells” (ACS Chemical Biology, 2025).
# This is one part of the list.
# B1: Q9UKT9 (peptide)
# chain: FGCSVCGHQFTQKGNLLRHIKL
# B2: Q9UKT9 (peptide)
# chain: FQCSVCGHRFTQKGNLLRHIKL
# B3: Q9UKT9 (peptide)
# chain: FCCPICGAMFTQKGNLLRHIKL
# B4: Q9UKT9 (peptide)
# chain: FFCDQCGAFFTQKGNLLRHIKL
# B5: Q9UKT9 (peptide)
# chain: FQCEICGHMFTQKGNLLRHIKL
# B6: Q9UKT9 (peptide)
# chain: FFCDVCGAMFTQKGNLLRHIKL
# B7: Q9UKT9 (peptide)
# chain: FRCEICGHEFTQKGNLLRHIKL
# B8: Q9UKT9 (peptide)
# chain: FDCNQCGAKFTQKGNLLRHIKL
# B9: Q9UKT9 (peptide)
# chain: FYCNQCGAEFTQKGNLLRHIKL
# B10: Q9UKT9 (peptide)
# chain: FYCDQCGARFTQKGNLLRHIKL
# B11: Q9UKT9 (peptide)
# chain: FFCNICGADFTQKGNLLRHIKL
# B12: Q9UKT9 (peptide)
# chain: FYCDICGAKFTQKGNLLRHIKL
# B13: Q9UKT9 (peptide)
# chain: FSCDICGASFTQKGNLLRHIKL
# B14: Q9UKT9 (peptide)
# chain: FFCNQCGHMFTQKGNLLRHIKL
# B15: Q9UKT9 (peptide)
# chain: FNCPQCGAFFTQKGNLLRHIKL
# B16: Q9UKT9 (peptide)
# chain: FGCPICGRDFTQKGNLLRHIKL
# B17: Q9UKT9 (peptide)
# chain: FNCEVCGAAFTQKGNLLRHIKL
# B18: Q9UKT9 (peptide)
# chain: LGCNQCGFVCTQKGNLLRHIKL
# B19: Q9UKT9 (peptide)
# chain: FCCDQCGAAFTQKGNLLRHIKL
# B20: Q9UKT9 (peptide)
# chain: FQCEICGAPFTQKGNLLRHIKL
# B21: Q9UKT9 (peptide)
# chain: FVCDQCGARFTQKGNLLRHIKL
# B22: Q9UKT9 (peptide)
# chain: FQCNVCGAFFTQKGNLLRHIKL
# B23: Q9UKT9 (peptide)
# chain: FRCPICGRCFTQKGNLLRHIKL
# B24: Q9UKT9 (peptide)
# chain: FECNQCGATFTQKGNLLRHIKL
# B25: Q9UKT9 (peptide)
# chain: LCCEICGFRCTQKGNLLRHIKL
# B26: Q9UKT9 (peptide)
# chain: FSCNQCGHLFTQKGNLLRHIKL
# B27: Q9UKT9 (peptide)
# chain: FRCNQCGRWFTQKGNLLRHIKL
# B28: Q9UKT9 (peptide)
# chain: FWCDVCGARFTQKGNLLRHIKL
# B29: Q9UKT9 (peptide)
# chain: FFCPICGRMFTQKGNLLRHIKL
# B30: Q9UKT9 (peptide)
# chain: FHCNVCGAVFTQKGNLLRHIKL
# B31: Q9UKT9 (peptide)
# chain: FECPICGRQFTQKGNLLRHIKL
# B32: Q9UKT9 (peptide)
# chain: FTCPQCGAYFTQKGNLLRHIKL
# B33: Q9UKT9 (peptide)
# chain: FQCPICGAHFTQKGNLLRHIKL
# B34: Q9UKT9 (peptide)
# chain: FECEICGRDFTQKGNLLRHIKL
# B35: Q9UKT9 (peptide)
# chain: FDCEICGRNFTQKGNLLRHIKL
# B36: Q9UKT9 (peptide)
# chain: FKCPVCGARFTQKGNLLRHIKL
# B37: Q9UKT9 (peptide)
# chain: FCCPICGHDFTQKGNLLRHIKL
# B38: Q9UKT9 (peptide)
# chain: FNCNVCGAHFTQKGNLLRHIKL
# B39: Q9UKT9 (peptide)
# chain: FGCPQCGAHFTQKGNLLRHIKL
# B40: Q9UKT9 (peptide)
# chain: FECPQCGAQFTQKGNLLRHIKL
# B41: Q9UKT9 (peptide)
# chain: FTCNQCGHYFTQKGNLLRHIKL
# B42: Q9UKT9 (peptide)
# chain: FFCEQCGANFTQKGNLLRHIKL
# B43: Q9UKT9 (peptide)
# chain: FYCEVCGAKFTQKGNLLRHIKL
# B44: Q9UKT9 (peptide)
# chain: LLCPICGFCCTQKGNLLRHIKL
# B45: Q9UKT9 (peptide)
# chain: FICNICGAEFTQKGNLLRHIKL
# B46: Q9UKT9 (peptide)
# chain: FRCDICGACFTQKGNLLRHIKL
# B47: Q9UKT9 (peptide)
# chain: FQCSVCGHSFTQKGNLLRHIKL
# Target: no compound (DMSO)
# Assay: log2 fold change of degron read counts, EGFP-low vs EGFP+ sorted cells; higher = lower degron-EGFP level without compound (poor expression or instability)
# Conditions: compound: DMSO control; 18 h
# 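Further: jurkat cells carrying a lentiviral library of mutant zinc finger degrons fused to EGFP plus mCherry, mCherry+ cells FACS sorted, degron abundance counted by next-generation sequencing.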
row,Sequence,log2 fold change of degron read counts
1,B1,-0.0693
2,B2,-0.238
3,B3,0.106
4,B4,-0.285
5,B5,-1.06
6,B6,-1.63
7,B7,-2.04
8,B8,-1.06
9,B9,-1.31
10,B10,-0.932
11,B11,-1.09
12,B12,-0.51
13,B13,-1.28
14,B14,0.754
15,B15,-0.102
16,B16,-0.241
17,B17,-2.3
18,B18,1.05
19,B19,-1.61
20,B20,-1.03
21,B21,-1.67
22,B22,-0.14
23,B23,-0.0314
24,B24,-2.17

row,Sequence,log2 fold change of degron read counts
1,B25,-0.132
2,B26,0.116
3,B27,1.07
4,B28,-1.03
5,B29,-0.74
6,B30,-0.537
7,B31,-0.672
8,B32,-0.202
9,B33,0.0569
10,B34,-1.45
11,B35,-1.93
12,B36,-0.836
13,B37,-0.436
14,B38,-0.585
15,B39,-1.39
16,B40,-2.03
17,B41,0.552
18,B42,-1.98
19,B43,-2.29
20,B44,1.67
21,B45,-1.72
22,B46,-1.33
23,B47,-1.44
